# According to the supplement of paper PMC8728848:
# The other results are listed elsewhere or left out.
# B1: DC-ASGPR L+GEE (Homo sapiens) (protein)
# chain: MTRTYENFQYLENKVKVQGFKNGPLPLQSLLQRLRSGPCHLLLSLGLGLLLLVIICVVGFQNSKFQRDLVTLRTDFSNFTSNTVAEIQALTSQGSSLEETIASLKAEVEGFKQERQAGVSELQEHTTQKAHLGHCPHCPSVCVPVHSEMLLRVQQLVQDLKKLTCQVATLNNNGEEASTEGTCCPVNWVEHQDSCYWFSHSGMSWAEAEKYCQLKNAHLVVINSREEQNFVQKYLGSAYTWMGLSDPEGAWKWVDGTDYATGFQNWKPGQPDDWQGHGLGGGEDCAHFHPDGRWNDDVCQRPYHWVCEAGLGQTSQESH
# Columns and labels:
# Assay in all cases: glycan array binding signal (z-score within array); higher = stronger binding
# Details in all cases: glycan notation: IUPAC condensed, linker removed
# Gal3S4S(b1-4)GlcNAc = molecular target: Gal3S4S(b1-4)GlcNAc
# How it was run: (§1)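 Columns mapping to the same glycan were averaged after glycan names were converted to IUPAC-condensed notation. The data come from 3228 arrays in the Consortium for Functional Glycomics database, limited to those with an available protein sequence. Binding is reported as a within-array Z-score averaged across arrays of one protein sequence and across linkers.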
# Gal3S6S(b1-4)GlcNAc = molecular target: Gal3S6S(b1-4)GlcNAc
# How it was run: as §1
# Gal3S6S(b1-4)GlcNAc6S = molecular target: Gal3S6S(b1-4)GlcNAc6S
# How it was run: as §1
# Gal4S(b1-4)GlcNAc = molecular target: Gal4S(b1-4)GlcNAc
# How it was run: as §1
# Gal4S6S(b1-4)GlcNAc = molecular target: Gal4S6S(b1-4)GlcNAc
# How it was run: as §1
# Gal6P(b1-4)GlcNAc = molecular target: Gal6P(b1-4)GlcNAc
# How it was run: as §1
# Gal6S(b1-3)GlcNAc = molecular target: Gal6S(b1-3)GlcNAc
# How it was run: as §1
# Gal6S(b1-3)GlcNAc6S = molecular target: Gal6S(b1-3)GlcNAc6S
# How it was run: as §1
# Gal6S(b1-4)Glc = molecular target: Gal6S(b1-4)Glc
# How it was run: as §1
# Gal6S(b1-4)Glc6S = molecular target: Gal6S(b1-4)Glc6S
# How it was run: as §1
# Gal6S(b1-4)GlcNAc = molecular target: Gal6S(b1-4)GlcNAc
# How it was run: as §1
# Gal6S(b1-4)GlcNAc6S = molecular target: Gal6S(b1-4)GlcNAc6S
# How it was run: as §1
# GalNAc(a1-3)Gal = molecular target: GalNAc(a1-3)Gal
# How it was run: as §1
# GalNAc(a1-3)GalNAc = molecular target: GalNAc(a1-3)GalNAc
# How it was run: as §1
# [1] = molecular target: GalNAc(a1-3)GalNAc(b1-3)Gal(a1-4)Gal(b1-4)Glc
# How it was run: as §1
# [2] = molecular target: GalNAc(a1-3)GalNAc(b1-3)Gal(a1-4)Gal(b1-4)GlcNAc
# How it was run: as §1
# GalNAc(b1-3)Gal = molecular target: GalNAc(b1-3)Gal
# How it was run: as §1
# [3] = molecular target: GalNAc(b1-3)Gal(a1-4)Gal(b1-4)GlcNAc
# How it was run: as §1
# [4] = molecular target: GalNAc(b1-3)Gal(a1-4)Gal(b1-4)GlcNAc(b1-3)Gal(b1-4)Glc
# How it was run: as §1
# [5] = molecular target: GalNAc(b1-3)Gal(a1-6)Gal(b1-4)Glc
# How it was run: as §1
# GalNAc(b1-3)GalNAc = molecular target: GalNAc(b1-3)GalNAc
# How it was run: as §1
# GalNAc(b1-3)GlcNAc = molecular target: GalNAc(b1-3)GlcNAc
# How it was run: as §1
# GalNAc(b1-4)Gal(b1-4)Glc = molecular target: GalNAc(b1-4)Gal(b1-4)Glc
# How it was run: as §1
# GalNAc(b1-4)GlcNAc = molecular target: GalNAc(b1-4)GlcNAc
# How it was run: as §1
# [6] = molecular target: GalNAc(b1-4)GlcNAc(b1-2)Man
# How it was run: as §1
# [7] = molecular target: GalNAc(b1-4)GlcNAc(b1-2)Man(a1-3)[GalNAc(b1-4)GlcNAc(b1-2)Man(a1-6)]Man(b1-4)GlcNAc(b1-4)GlcNAc
# How it was run: as §1
# [8] = molecular target: GalNAc(b1-4)GlcNAc(b1-3)GalNAc(b1-4)GlcNAc
# How it was run: as §1
# GalNAc(b1-4)GlcNAc6S = molecular target: GalNAc(b1-4)GlcNAc6S
# How it was run: as §1
# GalNAc(b1-6)GalNAc = molecular target: GalNAc(b1-6)GalNAc
# How it was run: as §1
# GalNAc3S(b1-4)GlcNAc = molecular target: GalNAc3S(b1-4)GlcNAc
# How it was run: as §1
# GalNAc3S(b1-4)GlcNAc3S = molecular target: GalNAc3S(b1-4)GlcNAc3S
# How it was run: as §1
# [9] = molecular target: GalNAc3S(b1-4)[Fuc(a1-3)]GlcNAc
# How it was run: as §1
# GalNAc4S6S(b1-4)GlcNAc = molecular target: GalNAc4S6S(b1-4)GlcNAc
# How it was run: as §1
# GalNAc6S(b1-4)GlcNAc = molecular target: GalNAc6S(b1-4)GlcNAc
# How it was run: as §1
# Glc(a1-4)Glc = molecular target: Glc(a1-4)Glc
# How it was run: as §1
# [10] = molecular target: Glc(a1-4)Glc(a1-4)Glc(a1-4)Glc
# How it was run: as §1
# Glc(a1-6)Glc(a1-6)Glc = molecular target: Glc(a1-6)Glc(a1-6)Glc
# How it was run: as §1
# [11] = molecular target: Glc(a1-6)Glc(a1-6)Glc(a1-6)Glc
# How it was run: as §1
binder,measurement,setting,value
B1,glycan array binding signal (z-score),Gal3S4S(b1-4)GlcNAc,-0.435
same,glycan array binding signal (z-score),Gal3S6S(b1-4)GlcNAc,0.045
same,glycan array binding signal (z-score),Gal3S6S(b1-4)GlcNAc6S,-0.504
same,glycan array binding signal (z-score),Gal4S(b1-4)GlcNAc,-0.608
same,glycan array binding signal (z-score),Gal4S6S(b1-4)GlcNAc,-0.382
same,glycan array binding signal (z-score),Gal6P(b1-4)GlcNAc,0.291
same,glycan array binding signal (z-score),Gal6S(b1-3)GlcNAc,-0.347
same,glycan array binding signal (z-score),Gal6S(b1-3)GlcNAc6S,0.324
same,glycan array binding signal (z-score),Gal6S(b1-4)Glc,-0.107
same,glycan array binding signal (z-score),Gal6S(b1-4)Glc6S,-0.289
same,glycan array binding signal (z-score),Gal6S(b1-4)GlcNAc,-0.434
same,glycan array binding signal (z-score),Gal6S(b1-4)GlcNAc6S,-0.056
same,glycan array binding signal (z-score),GalNAc(a1-3)Gal,0.867
same,glycan array binding signal (z-score),GalNAc(a1-3)GalNAc,0.928
same,glycan array binding signal (z-score),[1],1.15
same,glycan array binding signal (z-score),[2],1.31
same,glycan array binding signal (z-score),GalNAc(b1-3)Gal,3.04
same,glycan array binding signal (z-score),[3],4.33
same,glycan array binding signal (z-score),[4],4.06
same,glycan array binding signal (z-score),[5],1.59
same,glycan array binding signal (z-score),GalNAc(b1-3)GalNAc,0.206
same,glycan array binding signal (z-score),GalNAc(b1-3)GlcNAc,1.66
same,glycan array binding signal (z-score),GalNAc(b1-4)Gal(b1-4)Glc,-0.512
same,glycan array binding signal (z-score),GalNAc(b1-4)GlcNAc,2.13
same,glycan array binding signal (z-score),[6],1.01
same,glycan array binding signal (z-score),[7],0.807
same,glycan array binding signal (z-score),[8],2.36
same,glycan array binding signal (z-score),GalNAc(b1-4)GlcNAc6S,2.26
same,glycan array binding signal (z-score),GalNAc(b1-6)GalNAc,-0.246
same,glycan array binding signal (z-score),GalNAc3S(b1-4)GlcNAc,-0.536
same,glycan array binding signal (z-score),GalNAc3S(b1-4)GlcNAc3S,0.245
same,glycan array binding signal (z-score),[9],-0.453
same,glycan array binding signal (z-score),GalNAc4S6S(b1-4)GlcNAc,0.206
same,glycan array binding signal (z-score),GalNAc6S(b1-4)GlcNAc,1.11
same,glycan array binding signal (z-score),Glc(a1-4)Glc,-0.196
same,glycan array binding signal (z-score),[10],-0.607
same,glycan array binding signal (z-score),Glc(a1-6)Glc(a1-6)Glc,-0.353
same,glycan array binding signal (z-score),[11],-0.243
